In the antibiotic and cytotoxicity screens of Wong et al. (2023):
The other results are listed elsewhere or left out.

Experiments:
HSkMC = human skeletal muscle cells; test: cytotoxicity call (relative viability < 0.9); details: 10 µM
HepG2 = test: cytotoxicity call (relative viability < 0.9); details: 10 µM
S. aureus RN4220 = test: growth inhibition call (relative growth <= 0.2); details: 50 µM

SMILES | cytotoxicity call (HSkMC) | cytotoxicity call (HepG2) | growth inhibition call (S. aureus RN4220)
C[C@H]1CN([C@@H](C)CO)C(=O)c2cc(C#Cc3ccccc3F)cnc2O[C@@H]1CN(C)C(=O)Cc1ccncc1 | inactive | inactive | inactive
Nc1cccn2ncnc12 | inactive | inactive | inactive
OC[C@H]1O[C@@H](O[C@H]2[C@H](O)[C@@H](O)[C@@H](O)O[C@@H]2CO)[C@H](O)[C@@H](O)[C@@H]1O | inactive | inactive | inactive
CC(C)NC(=O)N(C)C[C@H]1OCCCC[C@@H](C)Oc2ccc(NC(=O)C3CCCCC3)cc2C(=O)N([C@H](C)CO)C[C@@H]1C | inactive | inactive | inactive
C[C@@H]1CCCCO[C@@H](CN(C)C(=O)Nc2ccc3c(c2)OCO3)[C@H](C)CN([C@H](C)CO)C(=O)c2cc(NS(=O)(=O)c3ccc(Cl)cc3)ccc2O1 | inactive | inactive | inactive
C[C@@H]1CN([C@H](C)CO)C(=O)c2cc(NC(=O)CCN3CCOCC3)ccc2O[C@@H]1CN(C)Cc1ccncc1 | inactive | inactive | inactive
COc1ccc(S(=O)(=O)N(C)C[C@@H]2Oc3c(cccc3N(C)C)C(=O)N([C@H](C)CO)C[C@H]2C)cc1 | inactive | inactive | inactive
CO[C@@H]1CN(C)C(=O)c2cc(NC(=O)Nc3ccc(Cl)cc3)ccc2OC[C@@H](C)N(C(=O)Nc2c(C)noc2C)C[C@@H]1C | inactive | inactive | inactive
COc1ccc(NC(=O)N(C)C[C@@H]2OCCCC[C@@H](C)Oc3ccc(NC(=O)CCCCCC(=O)Nc4ccccc4N)cc3C(=O)N([C@H](C)CO)C[C@@H]2C)cc1 | inactive | inactive | inactive
C[C@H](CO)N1C[C@H](C)[C@H](CN(C)S(=O)(=O)c2cn(C)cn2)Oc2ccc(NS(=O)(=O)c3ccccc3)cc2CC1=O | inactive | inactive | inactive
O=C(C[C@H]1CC[C@H](NC(=O)C2CC2)[C@H](CO)O1)NCCCN1CCOCC1 | inactive | inactive | inactive
CC(C)[C@@H](CC[C@@H](C)[C@H]1CC[C@H]2[C@@H]3[C@H](O)C[C@H]4C[C@@H](NCCCNCCCCN)CC[C@]4(C)[C@H]3CC[C@]12C)OS(=O)(=O)O | active | active | inactive
COc1ccc(NC(=O)Nc2ccc3c(c2)C(=O)N([C@H](C)CO)C[C@H](C)[C@@H](CN(C)Cc2ccccc2)OCCCC[C@@H](C)O3)cc1 | inactive | inactive | inactive
C[C@@H]1CN([C@H](C)CO)S(=O)(=O)c2ccc(C#Cc3ccncc3)cc2O[C@@H]1CN(C)C(=O)Nc1ccc2c(c1)OCO2 | inactive | active | inactive
CN1C(=O)/C(=C(/C#N)C(N)=O)c2ccccc21 | inactive | inactive | inactive
C[C@H](CO)N1C[C@H](C)[C@@H](CN(C)C(=O)c2cnccn2)Oc2ncc(C#Cc3ccccn3)cc2C1=O | inactive | inactive | inactive
C[C@@H]1CN([C@@H](C)CO)C(=O)c2ccccc2-c2ccccc2CO[C@H]1CN(C)C(=O)Nc1ccc(-c2ccccc2)cc1 | inactive | inactive | inactive
C[C@H]1CCCCO[C@@H](CN(C)Cc2ccncc2)[C@@H](C)CN([C@@H](C)CO)C(=O)c2cc(NC(=O)Nc3ccc(C(F)(F)F)cc3)ccc2O1 | inactive | inactive | inactive
COc1ccc(NC(=O)Nc2ccc3c(c2)C(=O)N([C@@H](C)CO)C[C@@H](C)[C@H](CN(C)C(=O)c2ccccc2)OCCCC[C@@H](C)O3)cc1 | inactive | inactive | inactive
C[C@@H]1CCCCO[C@H](CN(C)C(=O)NC2CCCCC2)[C@H](C)CN([C@H](C)CO)C(=O)c2cc(NC(=O)C3CCCCC3)ccc2O1 | inactive | inactive | inactive

SMILES | cytotoxicity call (HSkMC) | cytotoxicity call (HepG2) | growth inhibition call (S. aureus RN4220)
COCC(=O)Nc1ccc2c(c1)C(=O)N(C)C[C@H](OC)[C@H](C)CN(Cc1cccc(F)c1)[C@@H](C)CO2 | inactive | inactive | inactive
CC(C)(C(=O)O)c1ccc(C(O)CCCN2CCC(C(O)(c3ccccc3)c3ccccc3)CC2)cc1.Cl (configuration not stated) | inactive | inactive | inactive
Cc1noc(C)c1S(=O)(=O)N(C)C[C@@H]1Oc2ccc(NS(=O)(=O)c3cccs3)cc2C(=O)N([C@@H](C)CO)C[C@@H]1C | inactive | inactive | inactive
Cc1noc(C)c1NC(=O)Nc1ccc2c(c1)C(=O)N([C@H](C)CO)C[C@@H](C)[C@H](CN(C)S(=O)(=O)c1ccccc1)O2 | inactive | inactive | inactive
Cc1noc(C)c1NC(=O)Nc1ccc2c(c1)C(=O)N([C@@H](C)CO)C[C@@H](C)[C@H](CN(C)CC1CCCCC1)OCCCC[C@@H](C)O2 | inactive | inactive | inactive
CC(C)N1C(=O)c2cccc(NC(=O)c3ccncc3)c2O[C@H](CN(C)Cc2ccc(Cl)cc2)[C@H]1C | inactive | inactive | inactive
C[C@@H]1CCCCO[C@H](CN(C)Cc2ccc(C(F)(F)F)cc2)[C@@H](C)CN([C@@H](C)CO)C(=O)c2cc(NC(=O)Nc3ccccc3)ccc2O1 | inactive | active | inactive
Cc1noc(C)c1NC(=O)N(C)C[C@@H]1OCCCC[C@H](C)Oc2ccc(NS(=O)(=O)c3ccc(Cl)cc3)cc2C(=O)N([C@H](C)CO)C[C@@H]1C | inactive | inactive | inactive
C[C@@H]1CCCCO[C@@H](CN(C)C(=O)Nc2ccc3c(c2)OCO3)[C@@H](C)CN([C@@H](C)CO)C(=O)c2cc(NC(=O)Nc3ccc(F)cc3)ccc2O1 | inactive | inactive | inactive
CCc1nc2ccccc2c(C(=O)Nc2cccc(Cl)c2)c1C | inactive | inactive | inactive
C[C@@H]1CN([C@@H](C)CO)C(=O)c2cccc(NS(=O)(=O)c3ccc(F)cc3)c2O[C@@H]1CN(C)S(C)(=O)=O | inactive | inactive | inactive
C[C@@H]1CN([C@H](C)CO)C(=O)c2cccc(NC(=O)Nc3ccccc3)c2O[C@H]1CN(C)Cc1ccc(Oc2ccccc2)cc1 | inactive | inactive | inactive
C[C@@H]1CN([C@@H](C)CO)C(=O)c2cc(NC(=O)Nc3cccc4ccccc34)ccc2O[C@@H]1CN(C)Cc1ccc(C(=O)Nc2ccccc2N)cc1 | inactive | inactive | inactive
C[C@@H](O)C#Cc1ccc2c(c1)O[C@H](CN(C)C)[C@@H](C)CN([C@@H](C)CO)S2(=O)=O | inactive | inactive | inactive
CCCNC(=O)N(C)C[C@H]1Oc2cc(-c3ccccc3F)ccc2S(=O)(=O)N([C@@H](C)CO)C[C@@H]1C | inactive | inactive | inactive
COc1cccc(-c2cnc3c(c2)C(=O)N([C@H](C)CO)C[C@H](C)[C@H](CN(C)S(=O)(=O)c2ccccc2)O3)c1 | inactive | active | inactive
C[C@H]1CCCCO[C@@H](CN(C)C)[C@@H](C)CN([C@@H](C)CO)C(=O)c2cc(NC(=O)CCCN(C)C)ccc2O1 | inactive | inactive | inactive
C[C@@H]1CCCCO[C@H](CN(C)C(=O)Nc2ccc(C(F)(F)F)cc2)[C@@H](C)CN([C@H](C)CO)C(=O)c2cc(NC(=O)Nc3cccc4ccccc34)ccc2O1 | inactive | inactive | inactive
Cc1nn(C)cc1NC(=O)C[C@H]1CC[C@@H]2[C@H](COc3ccc(NC(=O)C4CCOCC4)cc3C(=O)N2C)O1 | inactive | inactive | inactive
